The source gives no read counts; variants with many changes may rest on few reads.
B1: LINE1-mini (parent)
chain: GGCAGAGCUCAACACAGCGUGGCAAAGUGGCUGUGGCUAGACUGCC

Variants of: B1
Assay: self-cleavage, relative activity (ratio to wild type); higher = more cleavage; in vitro, sequencing; the parent is a self-cleaving ribozyme

| Variant | self-cleavage |
| --- | --- |
| G5U U20A U32C | 0.02 |
| A6C G7A U20G C42U | 0.06 |
| A6G A11C G40A C46G | 0.02 |
| A6C C37A A39U | 0.08 |
| A6C C10U C46G | 0.05 |
| A6C G17A G27C C46G | 0.04 |
| A6C U9C C10U C31U | 0.02 |
| A6C G17U U20G C23U G36C A41U | 0.04 |
| A6G A16C A39G G44U | 0.01 |
| A6C G7A G21C G30U | 0.05 |
| A6C G17C C18G C31A | 0.04 |
| A6G A14C G40U A41C | 0.17 |
| A6C C15A A25C C42A | 0.02 |
| A6C C15A U20G G33U A39G | 0.04 |
| G5U C23G C31U | 0.03 |
| G5U C31G G40U | 0.12 |
| A6G A25G A26U | 0.05 |
| A6C G21U G27C G33U | 0.04 |
| G5U G7C A14G G27U | 0.04 |
| A6G C8U A16C A26C G35C | 0.01 |
| A6C U9C G40C C42A G44A C45G | 0 |
| A6G A11G U20C G35U C45U | 0.01 |
| A6C C13G A24G U34G | 0.02 |
| A6C A12C G19U G35U G36U | 0.01 |

| Variant | self-cleavage |
| --- | --- |
| G5U U28C G30A C31G G44A | 0.01 |
| G5U G7U C15G G19U C37U | 0.45 |
| A6C C15G A25G | 0.01 |
| G5U G22A U28A C45G | 0.02 |
| A6C C8U C18U A26G G35C | 0.06 |
| A6C A16C G17U C18A C37U | 0.11 |
| A6C C8A U20C U28A G33A G36C A39U | 0.14 |
| G5U U34A C37U | 0.02 |
| G5U G17C A26C G27C | 0.11 |
| A6G A12G C15U G19C U28C C31G C42U C45U C46U | 0.01 |
| G5U U34C C42A | 0.04 |
| A6C C10A G19U G30U G40C | 0.03 |
| G5U G27U G35A G36C G44A | 0.03 |
| G5U G27C C42A U43A | 0.03 |
| A6C G7U G22A | 0.24 |
| A6G A11C G35A C46U | 0 |
| A6C A12C C23A A41G | 0.02 |
| A6C G7A C10G C37G | 0.02 |
| A6C C8A G44C | 0.09 |
| A6C A11C G33A | 0.01 |
| A6G C8A A12C | 0.02 |
| A6C G22U G40U | 0.12 |
| A6C A14U C18U U32A U38A | 0.18 |
| A6G C10A A25G U38C G40U C46A | 0.02 |

| Variant | self-cleavage |
| --- | --- |
| G5U G21U A39C | 0.03 |
| G5U G33A A41G | 0 |
| A6G A11C G17A U20A U43G | 0 |
| A6C G36C U38C | 0.02 |
| G5U G22U U38G A39C | 0.07 |
| G5U C23U C31A C45U | 0.02 |
| G5U G21C U38G | 0.01 |
| A6C G7C U9C U20A A25C | 0.01 |
| G5U G27U G33A | 0.03 |
| A6G C8U U9A G17A | 0.05 |
| A6C C15U G44A | 0.07 |
| G5U U9G C10U G36C | 0.01 |
| A6G A24U G33C | 0.01 |
| A6C G21U G27C | 0.06 |
| A6C G27C G30U C37U | 0 |
| A6C A11U A16U C37A | 0.02 |
| A6C A12G G40C | 0.04 |
| G5U G7U G21C | 0.2 |
| A6C G19C G33A | 0.1 |
| G5U G33C G35U | 0.06 |
| A6G A11C G17U G33A U34A | 0.01 |
| A6C G30C G40A | 0.25 |
| A6G A25G G40C | 0.01 |
| A6C U20A G22U | 1.14 |

| Variant | self-cleavage |
| --- | --- |
| G5U G19C C23G | 0.03 |
| A6G C8U C42G | 0.05 |
| A6G A14G C37G A41U | 0 |
| A6G C8U A16G G19C G22A U28A A39U U43G | 0.01 |
| A6C G19U C45U | 0.39 |
| A6G A16U U34G | 0.04 |
| G5U U9G C46U | 0.04 |
| G5U C23G U38A | 0.08 |
| G5U G7U G30U | 0.18 |
| A6C C15U U28G G36U | 0.14 |
| A6G A16C G33C C37U | 0.01 |
| G5U G7C C13G A25G C46U | 0.06 |
| A6C C23A A26G | 0.15 |
| G5U U32C G35C | 0.02 |
| A6G A16C G21U | 0.02 |
| G5U G27A A41G | 0.03 |
| A6C C8G G19A C31A C37A A39C A41G | 0.01 |
| A6C C10G A25U C37U G40U | 0 |
| A6G A25G G33U C42G | 0.01 |
| A6C C15U G17A A25U C31A G40C | 0.03 |
| G5U G29U U34A C37U | 0.03 |
| A6C A14C G17U A41G | 0.06 |
| A6G C8G C10G C13U C37A | 0 |
| A6C C15U G35C | 0.03 |

| Variant | self-cleavage |
| --- | --- |
| A6G C8G U28A | 0.05 |
| A6C A14U C18A U20G G21A | 0.04 |
| A6C G21C A41C | 0.06 |
| A6G A11C C15G U20C G44A | 0.01 |
| A6C A11C G33A G44A C46A | 0 |
| G5U G22U A26G A39C C42A | 0.02 |
| A6G A24C G30C A41U | 0.06 |
| G5U C23G C37A | 0.04 |
| G5U G19U G29U U38G | 0.01 |
| A6C C8A G19C | 0.13 |
| A6G A14U A24G C42A | 0.06 |
| A6C A11G G27U G36U C42G C45G | 0 |
| G5U G44C C45U | 0.08 |
| G5U C23U A26G | 0.03 |
| G5U G33U G40U | 0.03 |
| A6C G21U C37U | 0.04 |
| A6G C8G C10A A24G | 0.01 |
| A6G C8U C13G C42U | 0.08 |
| A6G A12U G27U C31U U43C C46A | 0.03 |
| G5U U20G U28C | 0.06 |
| G5U C31G A41C | 0.04 |
| A6C G7C A14C C31G | 0 |
| A6C G21C G29U A39U G40U C42G | 0.01 |
| G5U C37A U43C | 0.1 |

| Variant | self-cleavage |
| --- | --- |
| A6C G7U C8A A25U G29C | 0.02 |
| G5U U9G A12C A14G G21U U38G | 0.02 |
| A6C A11C A14U G36C | 0.02 |
| A6C G27A C31A | 0.22 |
| A6G C8G A25C G29U G44U | 0.06 |
| A6C G7U C13U | 0.21 |
| A6C G19U U20G G29U C37G C46A | 0 |
| A6C U20A A41U | 0.55 |
| A6G A16C G17C G27A G44C | 0.02 |
| G5U U20C C31G G40A C46U | 0.01 |
| G5U U32G U34G C42A | 0.01 |
| A6C G7U A39U A41G | 0.51 |
| A6C A11C G21A U32G G44C | 0 |
| A6C C8U U9G C13U G21A C46U | 0.01 |
| A6C A26C U28A | 0.23 |
| G5U G7C A14U U28C C31A G44C C45U | 0.05 |
| A6C A41U C46A | 0.14 |
| G5U C31G A39G | 0.06 |
| A6C A12U A25C C45U | 0.06 |
| A6G C8A C18A G29C U38A C42A | 0.02 |
| A6C U9C G35A C45U | 0.03 |
| A6C G7C C23G G44A | 0.03 |
| A6C A11G C15A G36A C46A | 0.01 |
| G5U G22A G30A | 0.01 |

| Variant | self-cleavage |
| --- | --- |
| A6C A25C C31G | 0.05 |
| G5U G33C C37A | 0.04 |
| A6C G7U C10G A11U C18A U28C | 0.01 |
| G5U G7A G17A C18A | 0.07 |
| G5U U9A A16G A24C U28C G33C | 0 |
| A6C A26U C46U | 0.31 |
| G5U G19U U32G | 0.02 |
| A6C C10U C13A C18G G19C A25C A26C G29C C45A | 0.01 |
| A6C G7U C42U | 0.05 |
| A6C C15A G19U G30C U32G | 0.01 |
| A6G A41G C46A | 0.11 |
| A6C U9C A14C | 0.03 |
| G5U U34G G40C C45G | 0.01 |
| A6C A12G U20C G29A U38G | 0 |
| A6C C13U C31G C37U | 0.04 |
| G5U U20A U28C | 0.24 |
| G5U G7C A12U G27U | 0.05 |
| A6C C15U U32C C42G | 0 |
| A6C C8G C10A G44A | 0.03 |
| G5U U32G C46G | 0.04 |
| A6C C8G G35C G44A | 0.01 |
| A6C C31U G33U | 0.03 |
| G5U G29A G35U C42A | 0.03 |
